In the supplement of paper PMC8728848:
The list shows a part of the results.

Key:
Test in all cases: glycan array binding signal (z-score within array); higher = stronger binding
Conditions in all cases: glycan notation: IUPAC condensed, linker removed
[1] = biological target: GlcNAc(b1-2)Gal(b1-3)GalNAc
How it was run: (§1)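 The binding signal is a Z-score computed within each array. Data were drawn from 3228 arrays in the Consortium for Functional Glycomics database, restricted to those with a known protein sequence. Scores were averaged over arrays of the same protein sequence at different concentrations or buffers, and over linkers, and negative values can be taken as non-binding.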

[2] = biological target: GlcNAc(b1-2)Man(a1-3)[GlcNAc(b1-2)Man(a1-6)]Man(b1-4)GlcNAc(b1-4)GlcNAc
How it was run: as §1

[3] = biological target: GlcNAc(b1-2)Man(a1-3)[GlcNAc(b1-2)Man(a1-6)]Man(b1-4)GlcNAc(b1-4)[Fuc(a1-6)]GlcNAc
How it was run: as §1

[4] = biological target: GlcNAc(b1-2)Man(a1-3)[GlcNAc(b1-4)][GlcNAc(b1-2)Man(a1-6)]Man(b1-4)GlcNAc(b1-4)GlcNAc
How it was run: as §1

[5] = biological target: GlcNAc(b1-2)Man(a1-3)[GlcNAc(b1-4)][GlcNAc(b1-2)Man(a1-6)]Man(b1-4)GlcNAc(b1-4)[Fuc(a1-6)]GlcNAc
How it was run: as §1

[6] = biological target: GlcNAc(b1-2)[GlcNAc(b1-4)]Man(a1-3)[GlcNAc(b1-2)Man(a1-6)]Man(b1-4)GlcNAc(b1-4)GlcNAc
How it was run: as §1

[7] = biological target: GlcNAc(b1-2)[GlcNAc(b1-4)]Man(a1-3)[GlcNAc(b1-4)][GlcNAc(b1-2)Man(a1-6)]Man(b1-4)GlcNAc(b1-4)GlcNAc
How it was run: as §1

[8] = biological target: GlcNAc(b1-2)[GlcNAc(b1-4)]Man(a1-3)[GlcNAc(b1-4)][GlcNAc(b1-2)[GlcNAc(b1-6)]Man(a1-6)]Man(b1-4)GlcNAc(b1-4)GlcNAc
How it was run: as §1

[9] = biological target: GlcNAc(b1-2)[GlcNAc(b1-4)]Man(a1-3)[GlcNAc(b1-4)][GlcNAc(b1-2)[GlcNAc(b1-6)]Man(a1-6)]Man(b1-4)GlcNAc(b1-4)[Fuc(a1-6)]GlcNAc
How it was run: as §1

[10] = biological target: GlcNAc(b1-2)[GlcNAc(b1-6)]Man(a1-6)[GlcNAc(b1-2)Man(a1-3)]Man(b1-4)GlcNAc(b1-4)GlcNAc
How it was run: as §1

[11] = biological target: GlcNAc(b1-2)[GlcNAc(b1-6)]Man(a1-6)[GlcNAc(b1-2)Man(a1-3)]Man(b1-4)GlcNAc(b1-4)[Fuc(a1-6)]GlcNAc
How it was run: as §1

[12] = biological target: GlcNAc(b1-2)[GlcNAc(b1-6)]Man(a1-6)[GlcNAc(b1-4)][GlcNAc(b1-2)Man(a1-3)]Man(b1-4)GlcNAc(b1-4)GlcNAc
How it was run: as §1

GlcNAc(b1-3)Fuc = biological target: GlcNAc(b1-3)Fuc
How it was run: as §1

GlcNAc(b1-3)Gal = biological target: GlcNAc(b1-3)Gal
How it was run: as §1

[13] = biological target: GlcNAc(b1-3)Gal(b1-3)GalNAc
How it was run: as §1

GlcNAc(b1-3)Gal(b1-4)Glc = biological target: GlcNAc(b1-3)Gal(b1-4)Glc
How it was run: as §1

[14] = biological target: GlcNAc(b1-3)Gal(b1-4)GlcNAc
How it was run: as §1

[15] = biological target: GlcNAc(b1-3)Gal(b1-4)GlcNAc(b1-2)Man(a1-3)[GlcNAc(b1-3)Gal(b1-4)GlcNAc(b1-2)Man(a1-6)]Man(b1-4)GlcNAc(b1-4)GlcNAc
How it was run: as §1

[16] = biological target: GlcNAc(b1-3)Gal(b1-4)GlcNAc(b1-2)Man(a1-3)[GlcNAc(b1-3)Gal(b1-4)GlcNAc(b1-2)Man(a1-6)]Man(b1-4)GlcNAc(b1-4)[Fuc(a1-6)]GlcNAc
How it was run: as §1

[17] = biological target: GlcNAc(b1-3)Gal(b1-4)GlcNAc(b1-2)[GlcNAc(b1-3)Gal(b1-4)GlcNAc(b1-6)]Man(a1-6)[GlcNAc(b1-3)Gal(b1-4)GlcNAc(b1-2)Man(a1-3)]Man(b1-4)GlcNAc(b1-4)GlcNAc
How it was run: as §1

[18] = biological target: GlcNAc(b1-3)Gal(b1-4)GlcNAc(b1-3)Gal(b1-4)GlcNAc
How it was run: as §1

[19] = biological target: GlcNAc(b1-3)Gal(b1-4)GlcNAc(b1-3)Gal(b1-4)GlcNAc(b1-2)Man(a1-3)[GlcNAc(b1-3)Gal(b1-4)GlcNAc(b1-3)Gal(b1-4)GlcNAc(b1-2)Man(a1-6)]Man(b1-4)GlcNAc(b1-4)GlcNAc
How it was run: as §1

[20] = biological target: GlcNAc(b1-3)Gal(b1-4)GlcNAc(b1-3)Gal(b1-4)GlcNAc(b1-2)Man(a1-3)[GlcNAc(b1-3)Gal(b1-4)GlcNAc(b1-3)Gal(b1-4)GlcNAc(b1-2)Man(a1-6)]Man(b1-4)GlcNAc(b1-4)[Fuc(a1-6)]GlcNAc
How it was run: as §1

[21] = biological target: GlcNAc(b1-3)Gal(b1-4)GlcNAc(b1-3)Gal(b1-4)GlcNAc(b1-2)[GlcNAc(b1-3)Gal(b1-4)GlcNAc(b1-3)Gal(b1-4)GlcNAc(b1-6)]Man(a1-6)[GlcNAc(b1-3)Gal(b1-4)GlcNAc(b1-3)Gal(b1-4)GlcNAc(b1-2)Man(a1-3)]Man(b1-4)GlcNAc(b1-4)[Fuc(a1-6)]GlcNAc
How it was run: as §1

[22] = biological target: GlcNAc(b1-3)Gal(b1-4)GlcNAc(b1-3)Gal(b1-4)GlcNAc(b1-3)Gal(b1-4)GlcNAc(b1-2)Man(a1-3)[GlcNAc(b1-3)Gal(b1-4)GlcNAc(b1-3)Gal(b1-4)GlcNAc(b1-3)Gal(b1-4)GlcNAc(b1-2)Man(a1-6)]Man(b1-4)GlcNAc(b1-4)GlcNAc
How it was run: as §1

[23] = biological target: GlcNAc(b1-3)Gal(b1-4)GlcNAc(b1-3)Gal(b1-4)GlcNAc(b1-3)Gal(b1-4)GlcNAc(b1-2)Man(a1-3)[GlcNAc(b1-3)Gal(b1-4)GlcNAc(b1-3)Gal(b1-4)GlcNAc(b1-3)Gal(b1-4)GlcNAc(b1-2)Man(a1-6)]Man(b1-4)GlcNAc(b1-4)[Fuc(a1-6)]GlcNAc
How it was run: as §1

[24] = biological target: GlcNAc(b1-3)Gal(b1-4)GlcNAc(b1-3)Gal(b1-4)GlcNAc(b1-3)Gal(b1-4)GlcNAc(b1-2)[GlcNAc(b1-3)Gal(b1-4)GlcNAc(b1-3)Gal(b1-4)GlcNAc(b1-3)Gal(b1-4)GlcNAc(b1-6)]Man(a1-6)[GlcNAc(b1-3)Gal(b1-4)GlcNAc(b1-3)Gal(b1-4)GlcNAc(b1-3)Gal(b1-4)GlcNAc(b1-2)Man(a1-3)]Man(b1-4)GlcNAc(b1-4)[Fuc(a1-6)]GlcNAc
How it was run: as §1

[25] = biological target: GlcNAc(b1-3)Gal(b1-4)GlcNAc(b1-3)Gal(b1-4)GlcNAc(b1-3)Gal(b1-4)GlcNAc(b1-3)Gal(b1-4)GlcNAc(b1-2)Man(a1-3)[GlcNAc(b1-3)Gal(b1-4)GlcNAc(b1-3)Gal(b1-4)GlcNAc(b1-3)Gal(b1-4)GlcNAc(b1-3)Gal(b1-4)GlcNAc(b1-2)Man(a1-6)]Man(b1-4)GlcNAc(b1-4)GlcNAc
How it was run: as §1

[26] = biological target: GlcNAc(b1-3)Gal(b1-4)GlcNAc(b1-3)Gal(b1-4)GlcNAc(b1-3)Gal(b1-4)GlcNAc(b1-3)Gal(b1-4)GlcNAc(b1-2)Man(a1-3)[GlcNAc(b1-3)Gal(b1-4)GlcNAc(b1-3)Gal(b1-4)GlcNAc(b1-3)Gal(b1-4)GlcNAc(b1-3)Gal(b1-4)GlcNAc(b1-2)Man(a1-6)]Man(b1-4)GlcNAc(b1-4)[Fuc(a1-6)]GlcNAc
How it was run: as §1

[27] = biological target: GlcNAc(b1-3)Gal(b1-4)GlcNAc(b1-3)Gal(b1-4)GlcNAc(b1-3)Gal(b1-4)GlcNAc(b1-3)Gal(b1-4)GlcNAc(b1-2)[GlcNAc(b1-3)Gal(b1-4)GlcNAc(b1-3)Gal(b1-4)GlcNAc(b1-3)Gal(b1-4)GlcNAc(b1-3)Gal(b1-4)GlcNAc(b1-6)]Man(a1-6)[GlcNAc(b1-3)Gal(b1-4)GlcNAc(b1-3)Gal(b1-4)GlcNAc(b1-3)Gal(b1-4)GlcNAc(b1-3)Gal(b1-4)GlcNAc(b1-2)Man(a1-3)]Man(b1-4)GlcNAc(b1-4)[Fuc(a1-6)]GlcNAc
How it was run: as §1

B1: SialidaseA (Arthrobacter ureafaciens) (protein)
chain: MRSNSTSAPSLVRRAATGVLTCAVSIGLLAGLGLPAQAAPTPPNSPTLPPGSFSETNLAADRTAANFFYRIPALTYLGNDVVLAAWDGRPGSAADAPNPNSIVQRRSTDGGKTWGPVQVIAAGHVADASGPRYGYSDPSYIYDAEANKVFAFFVYSKDQGFGGSQFGNDDADRNVISSAVIESSDAGVTWSQPRLITSVTKPGTSKTNPAAGDVRSNFASSGEGIQLKYGPHKGRLIQQYAGDVRQADGSNKIQAYSVYSDDHGVTWHKGANVGDRMDENKTVELSDGRVLLNSRDNANRGYRKVAVSTDGGATYGPVSQDTELPDPANNGAIARMFPNAAQGSADAKKLIFTNANSKTGRENVSARVSCDDGETWPGVRTIRSGFSAYSTVTRLADGKFGVLYEGNYTDNMPFATFDDAWLNYVCAPLAVPAVNIAPSATQEVPVTVTNQEATTLSGATATVYTPSGWSATTVPVPDVAPGASVTVTVALTAPADASGPRSLNAAFTTADGRVSQFTFTATTPVAPQVGLTITGSAPARDVAANPYQAGDVLGYTLNVKSTANVAANSVPLTGTFDSGFLPPAAPNCRYNNLAAGASYNCTTAKHTITAADMERGYFVPEATFSITSTTTPSLTKTVQFTGAAVALRDGLISADISGARTDVGRDLATRPYAAGELVPYAFTVKNTSPFVEQVVPTAGNFSPFLPAGAGNCRYLSLPAGQSYECATPRHAVTAEEVEQGFFVPDTTWEVSAAGQSTRTYRINGGEVDLLVRDAALSATVVAEWKDADGDRFASAGDPVTFTYTVGNAGNVALTGLEAPDAGISLPFLAPGDTATATREHVLTAADVAGGSLAASAFEATARNGSKEVTATAEGQPLELKVQPAQPSKEPELTVQDLEDQTPPFDLGTAFKYRTGQKVSLAGLEYGQWYYVYLNKTGYRLGWMFPTTGDTVEFILPPEVRNGRDDVVVLDKDGRRVSFDRLQVTPKGEKI
- glycan array binding signal (z-score) [1]: 0.347
- glycan array binding signal (z-score) [2]: -0.338
- glycan array binding signal (z-score) [3]: -0.251
- glycan array binding signal (z-score) [4]: -0.689
- glycan array binding signal (z-score) [5]: -0.89
- glycan array binding signal (z-score) [6]: -0.749
- glycan array binding signal (z-score) [7]: -0.864
- glycan array binding signal (z-score) [8]: -0.824
- glycan array binding signal (z-score) [9]: -0.681
- glycan array binding signal (z-score) [10]: -0.551
- glycan array binding signal (z-score) [11]: -0.346
- glycan array binding signal (z-score) [12]: -0.712
- glycan array binding signal (z-score) (GlcNAc(b1-3)Fuc): -0.374
- glycan array binding signal (z-score) (GlcNAc(b1-3)Gal): -0.876
- glycan array binding signal (z-score) [13]: -0.683
- glycan array binding signal (z-score) (GlcNAc(b1-3)Gal(b1-4)Glc): -0.574
- glycan array binding signal (z-score) [14]: -0.874
- glycan array binding signal (z-score) [15]: -0.172
- glycan array binding signal (z-score) [16]: 0
- glycan array binding signal (z-score) [17]: 0.551
- glycan array binding signal (z-score) [18]: -0.891
- glycan array binding signal (z-score) [19]: 0.374
- glycan array binding signal (z-score) [20]: -0.241
- glycan array binding signal (z-score) [21]: 0.529
- glycan array binding signal (z-score) [22]: -0.081
- glycan array binding signal (z-score) [23]: 0.168
- glycan array binding signal (z-score) [24]: 0.616
- glycan array binding signal (z-score) [25]: 0.085
- glycan array binding signal (z-score) [26]: 0.035
- glycan array binding signal (z-score) [27]: 0.133
